Source: US12338279B2, “Selective and potent inhibitory antibodies of myostatin activation” (SCHOLAR ROCK, INC., priority 2022, dated 2025)

Assays:
[1] = AC-SINS self-interaction (aggregation behavior); format: physicochemical; conditions: cutoff shift >5 nm in plasmon wavelength
Protocol: The antibodies were tested for aggregation behavior by affinity capture self-interaction nanoparticle spectroscopy (AC-SINS). Gold nanoparticles were coated with polyclonal antibodies that are specific for human monoclonal antibodies and the monoclonal antibodies are captured by the conjugates. The polyvalency of the monoclonal antibody conjugates amplifies the attractive self-interactions, i.e., aggregation between the adsorbed antibodies. This leads to reduced inter-particle separation distances and is detected by a change in color of the gold colloid solution, which was quantified by a change in the wavelength of maximum absorbance (plasmon wavelength). Plasmon wavelength of 530 nm was used as the reported value for unaggregated gold nanoparticles. Antibodies with a tendency to self-aggregate shift the plasmon wavelength toward the red end of the spectrum. A shift of greater than 5 nm (i.e., >5 nm) in plasmon wavelength was used as the cutoff indicative of self-interacting antibodies.

[2] = tested on: total myostatin in serum; assay: Circulating total myostatin in serum (acidification ELISA), dexamethasone model; format: in vivo, mouse; conditions: as compared to apitegromab
Text: Briefly, serum samples were acidified at low pH (e.g., pH ˜2.5) to dissociate the bound antibody from the immune complex and to convert all myostatin in the sample to the active form of growth factor (i.e., mature myostatin). Samples were then neutralized and assayed for the presence of mature myostatin on ELISA plates coated with anti-mature myostatin antibodies as capture reagents.

[3] = tested on: dexamethasone-induced muscle atrophy in C57BL6 male mice; assay: Dexamethasone-induced muscle atrophy mouse model; format: in vivo; conditions: 3 mg/kg/day
Text: To evaluate in vivo efficacy of the novel myostatin-selective inhibitors disclosed herein, the ability of the antibodies to preserve lean muscle mass was examined in a dexamethasone-induced atrophy mouse model. An excess of glucocorticoids directly stimulates myostatin production via interactions with a glucocorticoid response element in the myostatin promoter, thus inducing loss of muscle mass. As shown herein, antibodies of the disclosure prevented glucocorticoid-induced muscle atrophy.
C57BL6 male mice (n=8) at 13-14 weeks of age were given normal drinking water or water containing dexamethasone at a concentration of 2.5 mg/kg (17.5 grams dexamethasone per liter of drinking water) to induce atrophy. […] Body weight was measured daily. Body composition was measured by qNMR to determine lean mass pre-dosing, at day 7, and at day 14. After 14 days of dexamethasone exposure, the animals were terminated, and body weight and gastrocnemius weight were measured. Terminal blood for each animal was also collected.
C57BL6 male mice (n=8) at 13-14 weeks of age were given normal drinking water or water containing dexamethasone at a concentration of 2.5 mg/kg to induce atrophy. Mice were dosed at day 1 and day 7 with vehicle (PBS), IgG control (“hIgG”) or different doses of the test antibodies, as shown in Table 13. Muscle mass at days −1, 6 and 13 was measured using qNMR. At the end of the study (day 14), serum from each animal was collected and changes in body weight, body composition (qNMR), left and right gastrocnemius weight, and left and right quadriceps weight were measured. Statistical analysis was performed by ANOVA (Dunnett's multiple comparison test).
In a third experiment, antibody doses ranging from 0.3 mg/kg to 10 mg/kg were compared for their effectiveness in attenuating dexamethasone-induced atrophy. C57BL6 male mice (n=8) at 13-14 weeks of age were given normal drinking water or water containing dexamethasone at a concentration of 2.5 mg/kg to induce atrophy. Mice were dosed at day 1 and day 7 with vehicle (PBS), human IgG control (“hIgG”) or different doses of the test antibodies, as shown in Table 14 below. qNMR was used to measure muscle mass at days-1, 6 and 13. At day 14 the study ended, serum was collected and changes in body composition (qNMR), left and right gastrocnemius weight, and left and right quadriceps weight were determined. Circulating myostatin was measured in the serum of a terminal bleed taken at day 14. Statistical analysis was performed by ANOVA (Dunnett's multiple comparison test).
In a fourth experiment, antibodies Ab109 and Ab133 were compared to control human IgG and Ab2 in the same protocol as described above.

[4] = tested on: biotinylated murine pro-myostatin; assay: Biacore 8k SPR binding affinity, murine pro-myostatin; parameters: species or system mouse
Text: (§1) The Biacore™ 8 k SPR system was utilized to evaluate the binding affinity of myostatin antibodies to biotinylated human, murine, and cyno pro-myostatin. Biotin CAPture kit and sensor chips (Cytiva) were utilized in these experiments to immobilize the various antigens, followed by flowing a range of concentrations of each of the test antibodies.

[5] = tested on: biotinylated human pro-myostatin; assay: Biacore 8k SPR binding affinity, human pro-myostatin
Text: as §1

Molecule | aggregation behavior by AC-SINS [1] | accumulation of total or latent myostatin in serum samples from dosed subjects [2] | body weight of dexamethasone treated mice ([3]; FIG. 6A, FIG. 9A) | lean mass by qNMR in dexamethasone treated mice ([3]; FIG. 6B, FIG. 9B) | gastrocnemius weight in dexamethasone treated mice ([3]; FIG. 6C, FIG. 9C) | Ka [4] [M⁻¹ s⁻¹] | Kd (1/s) [4] [s⁻¹] | Ka [5] [M⁻¹ s⁻¹] | Kd (1/s) [5]
Ab113: anti-pro/latent myostatin antibody; CDRs in Tables 2d-f, variable domains Table 3, chains Table 4 (protein) heavy chain: QVQLVQSGAEVKKPGASVKVSCKVSGYLLTELSIHWVRQAPGKGLEWMGGIIPSFGTAIYAQKFQGRVTMTEDTSTDTAYMELSSLKSEDTAVYYCAISYSGFDLLPLDKWGQGTLVTVSSASTKGPSVFPLAPCSRSTSESTAALGCLVKDYFPEPVTVSWNSGALTSGVHTFPAVLQSSGLYSLSSVVTVPSSSLGTKTYTCNVDHKPSNTKVDKRV[human IgG4 Fc with S228P (EU numbers) left out] light chain: DIQMTQSPSSVSASVGDRVTITCRASQHISTWLAWYQQKPGKAPKLLIYYASSLQGGVPSRFSGSGSGTDFTLTISSLQPEDFANYYCLQTYTYPRTFGGGTKVEIKRTVAAPSVFIFPPSDEQLKSGTASVVCLLNNFYPREAKVQWKVDNALQSGNSQESVTEQDSKDSTYSLSSTLTLSKADYEKHKVYACEVTHQGLSSPVTKSFNRGEC | displayed aggregation behavior | – | – | – | – | – | – | – | –
Ab102: anti-pro/latent myostatin antibody; CDRs in Tables 2d-f, variable domains Table 3, chains Table 4 (antibody) heavy: EVQLVESGGGLVQPGGSLRLSCAASGFTFTSYGMSWVRQAPGKGLELVASITGSGGETYYPDSVKGRFTISRDNAKNSLYLQMNSLRAEDTAVYYCARDLLVRFLEWSHYYGMDVWGQGTTVTVSSASTKGPSVFPLAPCSRSTSESTAALGCLVKDYFPEPVTVSWNSGALTSGVHTFPAVLQSSGLYSLSSVVTVPSSSLGTKTYTCNVDHKPSNTKVDKRV[human IgG4 Fc with S228P (EU numbers) left out] light: DIVMTQSPLSLPVTPGEPASISCRSSQSLLHSSGHNFLHWYLQKPGQSPQLLIYETSNRAPGIPDRFSGSGSGTDFTLKISRVEAEDVGVYYCMQATQFPRPFGGGTKVEIKRTVAAPSVFIFPPSDEQLKSGTASVVCLLNNFYPREAKVQWKVDNALQSGNSQESVTEQDSKDSTYSLSSTLTLSKADYEKHKVYACEVTHQGLSSPVTKSFNRGEC | did not display aggregation behavior | reduced accumulation of circulating latent myostatin | maintained the body weight of the dexamethasone treated mice to a greater extent than Ab2 | preserved the lean mass of the mice to a greater degree than the 10 mg/kg/day dose of Ab2 | highly effective in preserving gastrocnemius weight | 6.11e+06 | 0.0005 | 6.49e+06 | 0.000376 s⁻¹
Ab107: anti-pro/latent myostatin antibody; CDRs in Tables 2d-f, variable domains Table 3, chains Table 4 (antibody) heavy: EVQLVESGGGLVQPGGSLRLSCAASGSAFSSYGMSWVRQAPGKGLELVASINSNGGSTYYPDSVKGRFTISRDNAKNSLYLQMNSLRAEDTAVYYCARDQLVRFLEWSHYYGMDVWGQGTTVTVSSASTKGPSVFPLAPCSRSTSESTAALGCLVKDYFPEPVTVSWNSGALTSGVHTFPAVLQSSGLYSLSSVVTVPSSSLGTKTYTCNVDHKPSNTKVDKRV[human IgG4 Fc with S228P (EU numbers) left out] light: DIVMTQSPLSLPVTPGEPASISCRSSQSLLHSSGHNFLHWYLQKPGQSPQLLIYAGSNRPSGVPDRFSGSGSGTDFTLKISRVEAEDVGVYYCAHATQLPHTFGGGTKVEIKRTVAAPSVFIFPPSDEQLKSGTASVVCLLNNFYPREAKVQWKVDNALQSGNSQESVTEQDSKDSTYSLSSTLTLSKADYEKHKVYACEVTHQGLSSPVTKSFNRGEC | did not display aggregation behavior | – | – | – | – | 8.04e+06 | 0.000455 | 5.34e+06 | 0.000319 s⁻¹
Ab103: anti-pro/latent myostatin antibody; CDRs in Tables 2d-f, variable domains Table 3, chains Table 4 (antibody) heavy: EVQLVESGGGLVQPGGSLRLSCAASGYTFSSYGMSWVRQAPGKGLELVASITGDAGRTYYPDSVKGRFTISRDNAKNSLYLQMNSLRAEDTAVYYCARDTLVRFLEWSHYYGMDVWGQGTTVTVSSASTKGPSVFPLAPCSRSTSESTAALGCLVKDYFPEPVTVSWNSGALTSGVHTFPAVLQSSGLYSLSSVVTVPSSSLGTKTYTCNVDHKPSNTKVDKRV[human IgG4 Fc with S228P (EU numbers) left out] light: DIVMTQSPLSLPVTPGEPASISCRSSQSLLHSSGHNFLHWYLQKPGQSPQLLIYEVSNRVSGVPDRFSGSGSGTDFTLKISRVEAEDVGVYYCMQQTQYPPTFGGGTKVEIKRTVAAPSVFIFPPSDEQLKSGTASVVCLLNNFYPREAKVQWKVDNALQSGNSQESVTEQDSKDSTYSLSSTLTLSKADYEKHKVYACEVTHQGLSSPVTKSFNRGEC | did not display aggregation behavior | – | – | – | – | 5.83e+06 | 0.00221 | 5.78e+06 | 1.51 E−03 1/s
Ab101: anti-pro/latent myostatin antibody; CDRs in Tables 2d-f, variable domains Table 3, chains Table 4 (antibody) heavy: EVQLVESGGGLVQPGGSLRLSCAASGSAFSSYGMSWVRQAPGKGLELVASINSNGGSTYYPDSVKGRFTISRDNAKNSLYLQMNSLRAEDTAVYYCARDLLVRFLEWSHYYGMDVWGQGTTVTVSSASTKGPSVFPLAPCSRSTSESTAALGCLVKDYFPEPVTVSWNSGALTSGVHTFPAVLQSSGLYSLSSVVTVPSSSLGTKTYTCNVDHKPSNTKVDKRV[human IgG4 Fc with S228P (EU numbers) left out] light: DIVMTQSPLSLPVTPGEPASISCRSSQSLLHSSGHNFLHWYLQKPGQSPQLLIYEVSNRVSGVPDRFSGSGSGTDFTLKISRVEAEDVGVYYCMQQTQYPPTFGGGTKVEIKRTVAAPSVFIFPPSDEQLKSGTASVVCLLNNFYPREAKVQWKVDNALQSGNSQESVTEQDSKDSTYSLSSTLTLSKADYEKHKVYACEVTHQGLSSPVTKSFNRGEC | did not display aggregation behavior | – | – | – | – | 4.34e+06 | 0.00036 | 4.37e+06 | 0.000339 s⁻¹
